# The other results are listed elsewhere or left out. At the low end of the ranking, values are background and their order means little.
# Molecular target: T1, GST-Rok (full length) (UniProt O34857)
# T1 sequence: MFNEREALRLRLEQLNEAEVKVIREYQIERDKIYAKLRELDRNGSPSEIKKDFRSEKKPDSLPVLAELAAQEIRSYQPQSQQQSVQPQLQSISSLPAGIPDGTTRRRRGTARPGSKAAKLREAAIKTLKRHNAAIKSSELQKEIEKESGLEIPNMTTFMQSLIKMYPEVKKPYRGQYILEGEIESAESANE
# Test: protein binding microarray;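 also: rank score from −0.5 (least bound) to 0.5 (best bound)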
# Details: Rok is a gene silencer of Bacillus subtilis; high values mean tight binding; most listed sequences are background and not binding sites; double strand, one strand shown
row,Sequence,binding signal [E-score]
1,CGACGCAC,-0.122
2,AGATGTCC,-0.108
3,CGGGTCAA,-0.266
4,CTTATAAG,0.217
5,ATGGCTAG,-0.0116
6,CGAGTGAC,-0.124
7,CAGCCCCA,-0.291
8,GCTTCGCC,-0.163
9,ATTTTGAC,0.24
10,TACAAGCA,0.121
11,CACTACCG,0.0654
12,ATAGCACA,0.0233
13,CCACTAGC,-0.055
14,GACTCCTC,-0.334
15,AGAACCCT,-0.292
16,ATTGCGCG,0.00325
17,GGGGCCCC,-0.464
18,ATTCAAGA,-0.114
19,ACTGGGGC,-0.39
20,ATAGGACA,0.117
21,GCACTGGA,-0.181
22,CACACTCA,-0.00789

row,Sequence,binding signal [E-score]
1,CACCCTGG,-0.288
2,AGTAGGGC,0.0918
3,AGAGTGCC,-0.321
4,GTCTAGGA,-0.239
5,ACACATGA,0.211
6,AGTCTGGC,-0.137
7,ATCTATTC,0.128
8,CTCCGAGC,-0.206
9,ACCACGGC,-0.261
10,CATCAATA,-0.076
11,AGGCGCAC,-0.138
12,CTCTTGCC,-0.174
13,ATACCGCC,0.043
14,GACCCCAC,-0.442
15,GTGTCGCA,-0.0786
16,AGATTAGC,0.147
17,GCATCGCC,-0.439
18,AGTCCGTA,0.0325
19,AGATAAAA,0.293
20,CGCAGTCC,-0.241
21,GCGACGAC,-0.248
22,CCGCCCGA,-0.299

row,Sequence,binding signal [E-score]
1,AGTGGTAC,0.191
2,GGCGCACA,-0.198
3,ACACGCAC,-0.0836
4,CAACGAGA,0.00134
5,CTAATGTA,0.184
6,ATCTATGG,0.188
7,AAAGTGAT,0.0523
8,ACGTCTGC,-0.0805
9,GACTTCGA,-0.0722
10,GTAGTCAC,0.0191
11,CCCCATGC,-0.365
12,CAGCCTTC,-0.357
13,GTATGCAC,0.0133
14,AGACACTG,-0.172
15,AGGGTAGA,0.16
16,CCCACTTA,-0.0198
17,AGATCCAT,0.0551
18,CGGGTACG,0.0136
19,CCGCGCAC,-0.267
20,ATAGATGA,0.142
21,GGTTAAAA,0.086
22,GAGCTCCC,-0.192

row,Sequence,binding signal [E-score]
1,GGCAAAGA,-0.245
2,AGTTCGAG,0.124
3,AGCCCTCC,-0.379
4,AGGTGTAT,0.201
5,CGAAGGTA,0.00689
6,CCCGGACG,-0.339
7,GCGGATAA,-0.0484
8,CTGCGCGC,-0.0594
9,CCTTAAAC,-0.236
10,ATAGCCAC,-0.0983
11,AACTTGGG,-0.122
12,CTGTCTGC,0.0478
13,GTGGTATA,0.316
14,TAATGCTA,0.221
15,GAGTCTGC,-0.296
16,CAGTCGTC,-0.0617
17,TTCGAAAA,-0.169
18,GAGGACGA,-0.27
19,CATAGTGC,-0.127
20,CCCATAGC,-0.117

# Reference: article PMC6212790
